In PubChem BioAssay AID1159614 (National Center for Advancing Translational Sciences (NCATS), 2016):
Among all 45,000 compounds or so, about 65 (0.1%) were called active. Calls follow the shape of the dose curve; as a rule, active = well fitted activation curve with a large enough effect; inconclusive = small, poorly fitted or top-dose-only effect; inactive = no such curve, though single readings can be large or run the other way. The list shows a part of the results.

Target: Galactocerebrosidase (Homo sapiens) (UniProt P54803)
UniProt P54803, sequence (P54803 whole entry, looked up): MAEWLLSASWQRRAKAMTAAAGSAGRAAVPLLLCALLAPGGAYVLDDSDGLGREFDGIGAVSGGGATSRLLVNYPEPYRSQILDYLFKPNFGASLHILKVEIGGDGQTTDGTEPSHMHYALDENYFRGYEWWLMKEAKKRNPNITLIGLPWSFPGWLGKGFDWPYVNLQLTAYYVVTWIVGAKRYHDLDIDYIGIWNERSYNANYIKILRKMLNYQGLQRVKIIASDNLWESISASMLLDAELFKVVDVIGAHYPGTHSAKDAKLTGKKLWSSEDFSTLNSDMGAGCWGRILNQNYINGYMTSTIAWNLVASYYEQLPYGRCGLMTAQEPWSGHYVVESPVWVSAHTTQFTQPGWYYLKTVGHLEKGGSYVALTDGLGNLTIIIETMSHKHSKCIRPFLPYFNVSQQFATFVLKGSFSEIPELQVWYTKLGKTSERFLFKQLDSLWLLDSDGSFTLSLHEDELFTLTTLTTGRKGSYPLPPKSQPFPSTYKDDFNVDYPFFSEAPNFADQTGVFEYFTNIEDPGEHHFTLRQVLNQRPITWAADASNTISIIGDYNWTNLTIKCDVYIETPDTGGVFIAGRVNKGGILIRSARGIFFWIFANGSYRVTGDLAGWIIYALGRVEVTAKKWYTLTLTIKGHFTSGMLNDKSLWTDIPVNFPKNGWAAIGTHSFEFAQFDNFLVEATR
Experiment: A Novel Cell-Based Assay to Identify Small Molecules for B -Galactocerebrosidase; also: 0% is about no effect; nearly all actives have a fitted effect of over 65% in size
Details: 145M-Twi-hGALC-G270D cells (Twitcher mouse brain line with human GALC G270D), HMU-beta-Gal fluorescence, 48 h; series mostly up to 57.5 µM; activation: at the top concentration
Summary of the method: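 Live 145M-Twi cells (Twitcher mouse brain-derived, GALC-null) stably expressing human GALC-G270D, with a wild-type GALC line, were compound-treated. Residual GALC activity was then read as fluorescence from 0.1 mM final HMU-β-gal at pH 5.2; higher signal means activation.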

activation, inactive:
Cc1ccc([N+](=O)[O-])cc1S(=O)(=O)N1CCn2cccc2C1c1ccccc1F (stereo unspecified) -3.24%, CCOC(=O)c1c(C)c(-c2ccccc2)n(CC(=O)NCc2cccc(OC)c2)c1C -10.4%, O=C(NCc1cccn1Cc1ccccc1)Nc1cccc(C(F)(F)F)c1 -18.1%, O=C(Cn1c(=O)n(Cc2ccc(Cl)cc2)c(=O)c2cccnc21)Nc1ccccc1C(F)(F)F -3.98%, CN(Cc1ccc(F)cc1)S(=O)(=O)c1nnc(NC(=O)c2ccccc2Br)s1 -21.4%, Cc1ccc(NC(=O)CNC(=O)Cn2c(C)cc3ccccc3c2=O)cc1F -10.7%, Cc1ccc(NC(=O)CSc2nc3ccc(NC(=O)c4cccs4)cc3s2)cc1 -15.3%, CCOc1cc(CNC(=O)c2ccc(Cn3c(=O)c4cccn4c4cccnc43)cc2)ccc1OC -11.3%, CCOC(=O)c1cnc2cc(C(F)(F)F)ccc2c1N1CCN(c2cccc(Cl)c2)CC1 -19%, CCOc1ccccc1C(=O)Nc1ccc(S(=O)(=O)Nc2onc(C)c2C)cc1 -12.5%, CCOc1cccc(C2c3[nH]c4ccccc4c3CCN2C(=O)c2ccccc2F)c1 (stereo unspecified) -8.83%, CC(=O)c1ccc(NC(=O)Cn2cnc3nc4c(cc3c2=O)CC(C)CC4)cc1 (stereo unspecified) -7.47%, Cc1cccc(-c2nc3scc(CCNS(=O)(=O)c4c(C)noc4C)n3n2)c1 -16.9%, CCCCC(=O)Oc1ccc2oc(-c3ccc(OC)cc3)cc(=O)c2c1 -14.1%, CCc1cc(C(N)=S)ccn1 -12.6%, CCC(Sc1nnc(C)n2c1cc1sccc12)C(=O)Nc1ccccc1F (stereo unspecified) -11.6%, CCOC(=O)c1c(SCC(=O)Nc2nc3ccccc3s2)nc(=O)[nH]c1C -11.3%, Cc1ccc(CNC(=O)CCC(=O)N2CC(C)Sc3ccccc32)cc1 (stereo unspecified) -12.9%, CCCCn1c(CNC(=O)c2ccc(OC)cc2)nnc1SCC(=O)Nc1ccccc1 -1.22%, Cc1ccc(NC(=O)c2cc3c(=O)[nH]c4ccccc4c3n2C)cc1F -20.3%, COc1ccc(-c2cc(C(C)=O)c(C)n2CCC(=O)NCc2ccc(F)cc2)cc1 -13.7%, CCOC(=O)c1cccc(NC(=O)CCCn2c(C)c3cnn(-c4ccccc4)c(=O)c3c2C)c1 -6.31%, COc1cc(C2CC(=O)Nc3c2c(=O)n(C)c(=O)n3C)cc(OC)c1OC (stereo unspecified) -9.69%, Cc1cccc(-n2ncc(C(=O)N3CCC(C)CC3)c2C2CCN(C(=O)OC(C)(C)C)CC2)c1 -7.67%, CCOC(=O)c1c(S(=O)(=O)NCC(=O)N2CCN(c3ccccc3OC)CC2)c(C)n(C)c1C -6.05%, CC(=O)c1cccc(NS(=O)(=O)c2c(C)nc3sc(C)cn3c2=O)c1 -10.5%, CCN(CC)c1cc2c(cc1F)c(=O)c(S(=O)(=O)c1ccccc1)cn2Cc1ccccc1 -11.2%, COc1ccc(CCNC(=O)NCc2noc3ccc(C)cc23)c(OC)c1 -18.8%, CC[C@]12CCCN3CCc4c(n(c5ccccc45)C(=O)C1)[C@@H]32 -14.2%, CC1CCc2nc3ncn(CC(=O)Nc4cccc(C#N)c4)c(=O)c3cc2C1 (stereo unspecified) -8.92%, COc1cccc(NC(=O)c2cn(C3CCCCC3)c(=O)c3c2c2ccccc2n3C)c1 -18.1%, CCCCNC(=O)C(CC)Sc1nnc(-c2ccc(OC)c(OC)c2)c(-c2ccc(OC)c(OC)c2)n1 (stereo unspecified) -13.6%, Cc1ccc(-c2ccc(=O)n(C(C)C(=O)Nc3ccccc3Cl)n2)cc1C (stereo unspecified) -11.3%, CCn1cc(C(=O)O)c(=O)c2cc(F)c(N3CCN(C)CC3)cc21 -10.9% [at 23.8 µM], COc1ccccc1-c1nn(CCC(=O)Nc2cccc(C(C)=O)c2)c2nc(C)cc(C)c12 -7.72%, COc1ccc(S(=O)(=O)N(CC(=O)N2CCC(C)CC2)c2ccc(C)cc2)cc1 -2.64%, CCOC(=O)c1sc2ncn(CC(=O)Nc3ccc(C)cc3C)c(=O)c2c1C -9.53%, Cc1cc(C)c(/C=C/c2onc(C)c2S(=O)(=O)N2CCC(C(=O)N3CCN(c4ccccc4)CC3)CC2)c(C)c1 -14.5%, COC(=O)c1ccc(Cn2c(SCc3cccc(C)c3)nc3ccncc32)cc1 -14.2%, COc1ccc(C(=O)NCC(c2cccs2)S(=O)(=O)c2ccc(C)cc2)cc1 (stereo unspecified) 2.65%, CCc1ccccc1Nc1nn2c(=O)c3ccc(C(=O)Nc4cc(C)cc(C)c4)cc3nc2s1 -23.9%, Cc1cc(N2CCC(C)CC2)nc2ccc(NC(=O)CCC(=O)N3CCN(c4cccc(C(F)(F)F)c4)CC3)cc12 -9.79%, COc1cc(Cl)c(C)cc1NC(=O)CN1c2ccccc2S(=O)(=O)c2ccccc21 -4.19%, CCc1cccc(CC)c1NC1=NS(=O)(=O)c2ccccc21 -12.9%, CC(C)OCCCN1C(=O)c2[nH]nc(-c3ccccc3O)c2C1c1ccc(OCc2ccccc2)cc1 (stereo unspecified) 0.136%, CCOc1ccccc1NC(=O)C(C)Sc1nc2c(c(=O)[nH]1)CCCC2 (stereo unspecified) -11%, Cc1ccc(CC(=O)Nc2c(C(=O)N3CCN(c4ccccc4F)CC3)oc3ccccc23)cc1 -19.1%, Cc1ccc(NS(=O)(=O)c2ccc3c(c2)NC(=O)CCS3)c(Br)c1 -36.6%, Cc1nn(C)c2c1c(C(F)(F)F)cc(=O)n2CC(=O)NCc1ccccc1Cl -7.75%, Cc1cc(F)ccc1NC(=O)c1sc2nc(-c3cccs3)ccc2c1N -18%, Cc1ccc2c(=O)cc(C(=O)Nc3nnc(C)s3)oc2c1 -17.4%, CN1C(C(=O)Nc2ccc(F)cc2F)=CC(c2cccs2)=NS1(=O)=O -11.2%, CCn1nc(-c2ccccc2)c(-c2ccccc2)c(C(=O)OCCOC)c1=O 2.5%, Cc1oc(-c2ccccc2)nc1CNC(=O)Nc1ccccc1 -9.32%, CCOC(=O)C1=C(CN2CCC(C(=O)OCC)CC2)NC(=O)NC1c1ccc(Cl)cc1 (stereo unspecified) -34.4%, Cc1ccc(NCc2nnc3n2CCCCC3)cc1Cl -22%, CCOCCCNC(=O)CCc1nnc2ccc(N3CCN(c4cccc(OC)c4)CC3)nn12 -0.541%, CCOC(=O)c1ccccc1NC(=O)CCc1c(C)nc2ncnn2c1C -11.2%, Cc1cccc(NC(=O)CSc2nc3c([nH]c4ccccc43)c(=O)n2C)c1 -3.19%, CCOc1ccc(-n2c(=O)c3c(C)c(C(=O)N(C)C)sc3n(CC(=O)Nc3c(C)cc(C)cc3C)c2=O)cc1 -4.82%, COc1ccc2c(Sc3ccc(Cl)cc3)c(C(=O)NCCCN3CCCCC3)[nH]c2c1 -31.5%, Cc1ccc(CN(C(=O)COc2ccc(C)c(C)c2)C2CCS(=O)(=O)C2)o1 (stereo unspecified) -5.18%, CCOc1ccc(S(=O)(=O)N2CCN(c3ccccc3)CC2)cc1C(N)=O -12.1%, Cc1ccc(Nc2c(-c3ccccc3O)nc3ccc(Br)cn23)cc1 -10.8%, CC(C)N(C(=O)Cn1cc(S(=O)(=O)Cc2ccc(C(F)(F)F)cc2)c2ccccc21)C(C)C -10%, COc1ccc(S(=O)(=O)Nc2cc(-c3cn4ccccc4n3)ccc2C)cc1 -19%, COc1ccc(NC(=O)Nc2nnc(N(C)C3CCCCC3)s2)c(OC)c1 -13.5%, O=C(NCCc1ccccc1)c1c[nH]c2ccc(S(=O)(=O)Nc3ccccc3F)cc2c1=O -13.5%, COc1cc(C(=O)Nc2ccc(OCc3cc(=O)n4cc(C)sc4n3)cc2)cc(OC)c1OC 5.37%, Cc1ccccc1NC(=O)CSc1nc2c(oc3ccccc32)c(=O)n1-c1ccccc1F -8.62%, CC1CCN(C(=O)c2cc(-c3ccc(Cl)cc3)on2)CC1 -10.2%, CCOC(=O)c1sc(NC(=O)COc2ccccc2Cl)c(C(=O)OCC)c1C -14.8%, O=C(Nc1ccc(O)c(-c2nc3ccccc3o2)c1)c1ccco1 0.0647%, CCc1ccc(S(=O)(=O)c2nnn3c2nc(NC2CCCC2)c2sccc23)cc1 -10.2%, COc1ccc(C)cc1NC(=O)CCS(=O)(=O)c1ccc2c(c1)CC(=O)N2C -5.92%, COc1ccc(CCNC(=O)CCc2c(C)nc3nc(C)nn3c2C)cc1OC 2.15%, COc1cc(OC)c(NC(=O)Nc2ccccc2OCc2cc(=O)n3cc(C)ccc3n2)cc1Cl -0.543%, COCCNC(=O)c1cc(Sc2ccc(F)cc2F)nc2ccccc12 -11.3%, CC1=C(C(=O)OCC2CCCCC2)C(c2c(F)cccc2Cl)CC(=O)N1 (stereo unspecified) -13.2%, Cc1cccc(-n2c(=O)c3c(c4cc(C)ccc4n3C)n(Cc3ccccc3F)c2=O)c1 -15.5%, COc1ccc(Cn2c(SCc3ccc(C(=O)NCc4ccccc4F)cc3)nc3cccnc32)cc1 -9.7%, O=C(CSc1ccc2ccccc2n1)Nc1nsc(-c2ccc(Cl)cc2)n1 -26%, O=C(c1ccc2c(c1)N(Cc1ccc(F)cc1)C(=O)c1ccccc1S2(=O)=O)N1CCC(Cc2ccccc2)CC1 -10.4%, COc1ccc(-n2ccn(Cc3ccc(C)cc3)c(=O)c2=O)cc1OC -6.08%, CC(=O)N1c2nc(-c3ccco3)nn2C2(CCCCC2)[C@@H]2CCCC[C@@H]21 -9.28%, COc1ccc(NC(=O)CN(C)S(=O)(=O)c2ccc3[nH]c4c(c3c2)CCCC4)cc1Cl -11.1%, COc1ccc(-c2noc(N3CCC(C(=O)Nc4ccc(C)c(F)c4)CC3)n2)cc1OC -6.64%, COc1ccc(Cl)cc1NC(=O)CCCn1c(C)c2cnn(-c3ccccc3)c(=O)c2c1C -2.77%, Cc1ccc(Cl)cc1N1C(=O)N(Cc2ccc(C#N)cc2)c2ccccc2S1(=O)=O -5.26%, COc1ccc(C2=Nc3ccc(C)cc3NC(c3ccc(Cl)cc3)=N2)cc1 -12.3%, COc1ccc(CNC(=O)c2cccc(NC(=O)N3CCSc4ncccc43)c2)cc1 -7.61%, Cc1ccc(NC(=O)CC2Nc3cccc4cccc(c34)NC2=O)cc1 (stereo unspecified) 4.07%, CCCCNC(=O)CSc1nc2ccccc2nc1Cc1ccc(Cl)cc1 -12.3%, CCOc1cccc2cc(-c3nc4sc5c(c4c(=O)[nH]3)CCC(C)C5)c(=O)oc12 (stereo unspecified) -13.8%, COc1ccc(NC(=O)CCNS(=O)(=O)c2cccc3nsnc23)cc1OC -5.75%, COc1ccc(N(Cc2ccccc2)C(=O)c2nc(SC)ncc2Cl)cc1 -13.8%
